Several values for one entry are separate records, joined by “and”; a condition that tells them apart may be missing. Equal entries are not always repeated. Screen size: about 48,000 compounds; about 1,200 (2.5%) were called active. Not shown: some 2% with an inconclusive outcome.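 The calls were made as follows: active = activation of at least 60% and not above a set upper limit (about 1 call in 100 departs from these limits); inconclusive = activation of 40% to 60%, or above that upper limit; inactive = activation under 40%.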 This is one part of the list.

Chain of UniProt O75388 (O75388 whole entry, looked up): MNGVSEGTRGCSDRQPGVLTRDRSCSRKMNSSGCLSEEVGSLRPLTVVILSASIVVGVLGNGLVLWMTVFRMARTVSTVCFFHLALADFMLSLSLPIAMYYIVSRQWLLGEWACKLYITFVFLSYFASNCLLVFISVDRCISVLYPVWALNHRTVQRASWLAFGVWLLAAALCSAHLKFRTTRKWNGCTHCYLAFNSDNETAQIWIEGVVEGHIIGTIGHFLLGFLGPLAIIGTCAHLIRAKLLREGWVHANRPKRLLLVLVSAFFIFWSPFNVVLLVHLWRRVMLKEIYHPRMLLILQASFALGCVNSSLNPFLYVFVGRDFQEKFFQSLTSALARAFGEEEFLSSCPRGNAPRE

This assay has as its target Probable G-protein coupled receptor 32 (Homo sapiens) (UniProt O75388). The assay is described as follows: qHTS for Agonists of Human Resolvin D1 Receptor DRV1. Also: 0% is about no effect. The note with it: CHO-K1 GPR32 beta-arrestin PathHunter luminescence, 90 min; at 76.9 µM; active compounds read high; zero percent set by DMSO-only wells. A digest of the protocol:
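Step 1: seed CHO-K1 GPR32 beta-arrestin cells, 2,500/well, overnight at 37 °C. Step 2: add compounds, 90 min at 37 °C. Step 3: detection reagent, 1 h ambient, then luminescence.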
In general terms: In qHTS, concentration-response curves come from the screen itself.
For `CC(=O)Nc1ccc(NC(=O)CSc2nccn2Cc2ccc3c(c2)OCO3)cc1`, the activation was inactive: 0.139%.
As for `COc1cc(NC(=O)CSc2ncc3c(n2)-c2ccc(Cl)cc2N(Cc2ccccc2)S3(=O)=O)cc(OC)c1`, the figure is inactive: 0.499%; as for `CC(C)c1ccc(NC(=O)CSC2=Nc3ccccc3C3=NC(CC(=O)NCc4cccs4)C(=O)N23)cc1` (centres undefined), inactive: -12.5%.
In the case of `COc1ccc(-c2cc(C(=O)Oc3ccc(C)cc3)c3ccccc3n2)cc1`, the activation was inactive: 12.6%.
With `CC(C)Oc1ccc(C(=O)N2CCC(c3nc4ccccc4o3)CC2)cc1`, the activation is inactive: -23.9%.
The same measure for `Cc1ccc(NS(=O)(=O)c2ccc(-c3cnc(C4CC4)o3)cc2)cc1N(C)C`: inactive: -46.8%; for `CCOc1ccccc1CNC(=O)CCc1c(C)nn(-c2ccc(N3CCCCC3)nn2)c1C`: inactive: -0.818%; for `CN(C)CCNC(=O)C1CCN(c2ncnc3c2nc2n3CCCCC2)CC1`: inactive: -6.45%.
As for `O=C1CSC2(C(=O)N(Cc3ccccc3F)c3ccccc32)N1c1cccc(C(F)(F)F)c1` (centres undefined), the figure is inactive: -18.4%.
As to `O=C(Cn1ncc2c3ccccc3n(Cc3ccc(Cl)cc3)c2c1=O)NCCC1=CCCCC1`, the activation was inactive: -4.34%.
The same measure for `CC(=O)c1sc(NC(=O)c2c(-c3ccccc3)c(-c3ccccc3)nn(C)c2=O)nc1C`: inactive: -4.37%; for `CCN1CCN(C(=O)c2cnn(-c3ccc(F)cc3F)c2C2CCN(C(=O)OC(C)(C)C)CC2)CC1`: inactive: -8.1%; for `CCN(CC)C(=O)Cn1c(=O)n(-c2ccc(C)c(C)c2)c(=O)c2c(C)c(C(=O)N(CC)CC)sc21`: inactive: -2.23%.
As for `CCOc1ccc(NC(=O)c2c(NCc3cccnc3)sc3c2CCC(C)C3)cc1` (centres undefined), the figure is inactive: -7.07%; as for `CCCCCN1C(C(=O)c2ccccc2)=C(NC(=O)c2ccc(C)cc2)c2ccccc2S1(=O)=O`, inactive: -2.4%.
As for `CC1CCc2onc(C(=O)N3CCN(c4ccc(F)cc4)CC3)c2C1` (centres undefined), the figure is inactive: -16.2%; as for `CC(=O)c1ccc(O)c(C(N)=O)c1`, inactive: -17.6%; as for `CC1CCC(N2CC(=O)N(CCC3=CCCCC3)C(c3ccc(F)cc3)C2=O)CC1` (centres undefined), inactive: -13.3%.
Take `COc1ccc(OC)c(NC(=O)c2cnc(Nc3ccc(C)c(Cl)c3)c3ccccc23)c1`: the activation was inactive: -0.21%.
The same measure for `COc1cc(Cl)c(NC(=O)CCc2nc3cccnc3n2-c2ccccc2)c(OC)c1`: inactive: -6.04%.
The same measure for `CC(=O)Nc1c(C)nn(-c2ccccc2)c1N1CCC(C(=O)NCc2cccc(Cl)c2)CC1`: inactive: -8.58%; for `CC(C)(C)OC(=O)N1CCC(c2c(C(=O)N3CCN(c4ccccc4F)CC3)cnn2-c2ccccc2Cl)CC1`: inactive: -2.03%; for `Cc1ccc(NC(=O)c2cnc(SCC(=O)N3CCCc4ccccc43)n(C)c2=O)cc1`: inactive: -5.65%.
The same measure for `CSC(N)=NCCC[C@H](N)C(=O)O`: inactive: -4.97%.
For the molecule `CC1=C(C(=O)Nc2ccc(Cl)cc2)C(c2cccs2)n2nc(SCc3cccc(C)c3)nc2N1` (centres undefined), the activation is inactive: -1.1%.
The same measure for `O=C(CSc1nc2cc3ccccc3cc2[nH]1)Nc1ccc(F)cc1`: active: 65.1%; for `CCOc1ccc(NC(=O)CCNS(=O)(=O)c2ccc3c(c2)CCCC(=O)N3)cc1`: inactive: -2.51%.
As for `COc1ccc(N2CCN(C(=O)C3CCN(S(=O)(=O)c4cccc5nonc45)CC3)CC2)cc1`, the figure is inactive: 9.14%; as for `CCN1CCN(CCCNC(=O)CS(=O)(=O)Cc2nc(-c3ccccc3C)oc2C)CC1`, inactive: 0.252%.
As for `Cc1cc(C)cc(NC(=O)c2ccc3oc(=O)c(S(=O)(=O)c4ccc(F)cc4)cc3c2)c1`, the activation was active: 103%.
In the case of `COc1cccc2sc(NC(=O)c3ccc(S(=O)(=O)N4CCC(C)CC4)cc3)nc12`, the activation was inactive: -8.63%.
The same measure for `CCOC(=O)c1noc2ncnc(Nc3cc(Cl)c(OC)cc3OC)c12`: inactive: 14.2%; for `COc1ccc(NC(=O)Cn2c(=O)c3cccn3c3ccccc32)cc1Cl`: inactive: -29.7%.
The same measure for `O=C(Nc1ccc(-c2nc3ccccc3o2)c(O)c1)c1ccccc1`: inactive: -2.35%; for `Cc1ccc(-c2nnc(Nc3ccc(C(N)=O)cc3)c3ccccc23)cc1S(N)(=O)=O`: inactive: -2.09%.
The same measure for `COc1ccc(-c2nc3sc(CCNC(=O)Cc4ccc(F)cc4)c(C)n3n2)cc1`: inactive: -10.2%.
In the case of `Cc1sc(-c2cc3ccccc3oc2=O)nc1-c1ccc(Cl)c(Cl)c1`, the activation was inactive: -4.18%.
Consider `COc1ccc(C)cc1NC(=O)Nc1cc(C(=O)NCc2ccc(C)cc2)ccc1N1CCCC1`, for which the activation was inactive: -10.4%.
As for `CCOc1ccccc1OCCCCn1c(-c2ccc(Cl)cc2)nc2ccccc2c1=O`, the figure is inactive: -4.17%; as for `CCOc1ccc(CNCc2c(C(=O)O)c(C)n(Cc3ccc(C)cc3)c2C)cc1`, inactive: -6.13%.
The same measure for `Cc1nnc(N2CCCC(C(=O)NCCN(C)C)C2)c2nn(-c3ccccc3)c(C)c12` (centres undefined): inactive: 4.9%; for `O=S(=O)(Nc1ccc(-c2ccc(N3CCCC3)nn2)cc1)c1ccc(C(F)(F)F)cc1`: inactive: -10.1%; for `CCC(Sc1nc(-c2ccccc2)[nH]c1S(=O)(=O)c1ccc(C)cc1)C(=O)O` (centres undefined): inactive: 6.18%.
Turning to `Cc1ccc(-n2ncc3c(N(C)C)ncnc32)cc1Cl`, the activation is inactive: -4.69%.
As for `Cc1cccc(-c2nc(CCNC(=O)c3ccc(Br)o3)cs2)c1`, the figure is inactive: 8.91%.
The same measure for `Cc1cc(C)cc(OC(=O)c2cc(-c3ccc(Cl)cc3)on2)c1`: inactive: 12.8%; for `CC(C)c1ccc(-c2noc(SCC(=O)N3CCCCC3C)n2)cc1` (centres undefined): inactive: 31.7%.
As for `Cc1cc(=O)n(Cc2ccc(F)cc2Cl)c2c1c(C)nn2C`, the figure is inactive: 7.11%; as for `O=C(NCCCN1CCN(c2ccc(F)cc2)CC1)c1cc2c(Cl)nc3ccccc3c2s1`, inactive: -12.4%.
Regarding `Cc1ccccc1CNC(=O)c1oc2c(c1C)-c1nn(Cc3ccc(Cl)cc3)cc1CC2`, the activation was inactive: -12.3%.
For `CCN(CC)S(=O)(=O)c1ccc2c(c1)N(CC(=O)Nc1ccc(OC)cc1)C(=O)CS2`, the activation was inactive: -6.69%.
As for `COC(=O)CSc1nc2sc3c(c2c(=O)n1-c1ccc(C)cc1)CC(C(C)C)OC3` (centres undefined), the figure is inactive: 19.1%; as for `CCOc1ccc(NC(=O)C2CCCN(c3cnccn3)C2)cc1` (centres undefined), inactive: 0.0273%.
Turning to `CCOc1ccc(Cl)cc1CNCCCSc1nnnn1C`, the activation is inactive: 1.73%.
Regarding `COC(=O)c1ccccc1NC(=O)c1cnn(-c2ccc(F)cc2)c1-n1cccc1`, the activation was inactive: 25.2%.
As for `CCCCCOC(=O)Nc1nc(=O)n([C@@H]2O[C@H](C)[C@@H](O)[C@H]2O)cc1F`, the figure is inactive: 18.3%.
The same measure for `Cc1ccc(CN(C(=O)COc2ccccc2[N+](=O)[O-])c2ccccn2)cc1`: inactive: -13.1%; for `Cc1cccc(OCC(=O)NCCc2nc3ccccc3[nH]2)c1C`: inactive: -3.52%; for `O=C(NCc1ccccc1Cl)C1CCN(C(=O)N2CCOc3ccccc32)CC1`: inactive: -9.99%.
Turning to `CCC(CC)C(=O)Nc1nnc(S(=O)(=O)N2CCc3ccccc32)s1`, the activation is inactive: 10.8%.
As for `CCCN(CCC)CCNC(=O)CN1C(=O)COc2ccc(S(=O)(=O)N3CCOCC3)cc21`, the activation is inactive: -16%.
As for `CCOc1ccc(-n2nc(CO)c(C(=O)NCc3ccccn3)n2)cc1`, the figure is inactive: -5.77%.
As for `COc1ccc(CNC(=O)CCc2c(C)c3cc4c(C)c(C)oc4cc3oc2=O)cc1`, the figure is inactive: -12.4%; as for `Cc1ccc(C(=O)Nc2nnc(S(=O)(=O)N3CCCCCC3)s2)cc1`, inactive: 21.9%.
With `CC(=O)Nc1ccc(-c2nnc3n(Cc4ccc(C)cc4)c(=O)c4ccccc4n23)cc1`, the activation is inactive: -9.15%.
The same measure for `CC(=O)N1CCc2cc(S(=O)(=O)NC(CC(C)C)C(=O)NCc3ccccc3Cl)ccc21` (centres undefined): inactive: -7.55%; for `Cc1c(NC(=O)c2cc(-c3ccccc3O)on2)c(=O)n(-c2ccccc2)n1C`: inactive: 11%.
The same measure for `O=c1c(NCc2ccccc2Cl)nccn1-c1ccccc1`: inactive: -0.425%.
The same measure for `CCOC(=O)CCC(=O)Nc1nnc2n1CCS2`: inactive: -21.7%.
On to `CCCCCOc1ccc(Cn2c(=O)oc3ccc(C)cc32)cc1OC`, for which the activation was inactive: -17.7%.
Take `CCC(=O)N1CCc2cc(Br)cc(S(=O)(=O)N3CCC(C(=O)Nc4ccccc4F)CC3)c21`: the activation was inactive: 34.3%.
As for `CCCCNc1ccc(C(=O)OCCN(C)C)cc1`, the figure is inactive: -21.7% and inactive: -4.09%.
With `O=C1CC(c2cc(F)cc(F)c2)c2cc3c(cc2N1)OCO3` (centres undefined), the activation is inactive: 38.5%.
As for `Cc1c(C(=O)N2CCN(c3ccc(F)cc3)CC2)sc2nc3n(c(=O)c12)CCC3`, the figure is inactive: -5.59%; as for `CCCCS(=O)(=O)c1oc(-c2cccs2)nc1S(=O)(=O)c1ccc(F)cc1`, inactive: -8.15%.
As for `Cc1cc(C)cc(C(=O)n2nc(C)c(S(=O)(=O)N3CCCCCC3)c2C)c1`, the figure is inactive: 6.92%.
As for `O=C(Nc1ccc(Cl)cc1Cl)c1cc(S(=O)(=O)N2CCCCCC2)ccc1F`, the figure is inactive: -23.8%; as for `CCCCc1nn2c(=O)cc(COC(=O)c3ccccc3NC(=O)c3cccs3)nc2s1`, inactive: -3.97%.
For the molecule `CCCOc1ccc(NC(=O)CC2C(=O)N(c3ccc(C)cc3)C(=O)N2CCc2ccncc2)cc1` (centres undefined), the activation was inactive: -23.7%.
The same measure for `O=C(Cn1ccn(-c2ccc(F)cc2)c(=O)c1=O)Nc1ccccc1C(F)(F)F`: inactive: -2.42%; for `Cc1cccc(NC(=O)Cn2nnc(C(=O)NCc3ccco3)c2N)c1`: inactive: 27.3%; for `Cc1oc(-c2ccc(C(=O)NCCN(C)C)cc2)nc1CS(=O)(=O)c1ccccc1`: inactive: -8.67%.
The same measure for `O=C(Cn1nc(-c2ccccc2)nc(Cc2ccccc2)c1=O)Nc1ccc(Cl)cc1`: inactive: -2.07%.
The same measure for `CC(C)Cn1c(C2CC(=O)N(c3ccccc3Cl)C2)nc2ccccc21` (centres undefined): inactive: 7.36%.

Values taken from PubChem BioAssay AID1346428 (National Center for Advancing Translational Sciences (NCATS), 2018).
